# Test results from a collection of fitness landscapes (doi:10.1016/j.celrep.2020.107928).
# Over roughly 81,000 sequences, “one-hybrid fitness for binding parS DNA” has its median near -0.17; the highest 2% begin near 0.51. This is one part of the list.
# B1: Caulobacter ParB omega fusion; a variant is named by its letters at X, in order, B8GW30 (parent)
# chain: MESVVVGEPGMSEGRRGLGRGLSALLGEVDAAPAQAPGEQLGGSREAPIEILQRNPDQPRRTFREEDLEDLSNSIREKGVLQPILVRPSPDTAGEYQIVAGERAWRAAQRAGLKTVPIMVRELDDLAVLEIGIIENVQRADLNVLEEALSYKVLMEKFERTQENIAQTIGKSXSHVANXMRLLXLPDEVQSYLVSGELTAXHARAIAAAADPVALAKQIIEGGLSVRETEALARKAPNLSAGKSKGGRPPRVKDTDTQALESDLSSVLGLDVSIDHRGSTGTLTITYATLEQLDDLCNRLTRGI
# Variants of: B1
# Assay: one-hybrid fitness for binding parS DNA (scaled: cognate 1, non-cognate 0); higher = stronger binding
# Details: with parS DNA site
# Procedure, shortened: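 The reporter was HIS3, with the binding site 19 bp from the promoter, in E. coli USO used for bacterial one-hybrid selection of Caulobacter ParB libraries with four specificity codons randomised. Growth was on M9 lacking histidine, with 0.1 mM IPTG and 5 mM 3-AT, for 48 hours at 37°C. Illumina sequencing covered plasmids before and after selection; three replicate libraries were pooled and variants with under 10 reads dropped. A fitness score is the log change in variant-to-wild-type read ratio, rescaled to the cognate and non-cognate references.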
row,Variant,one-hybrid fitness for binding parS DNA
1,YVHG,≤ 0.2
2,RPGL,≤ 0.2
3,CGCC,≤ 0.2
4,QPGQ,≤ 0.2
5,CLIG,≤ 0.2
6,VNRC,≤ 0.2
7,VSCR,≤ 0.2
8,DIYR,≤ 0.2
9,MCAR,≤ 0.2
10,SNGY,≤ 0.2
11,GNNV,≤ 0.2
12,PFVW,≤ 0.2
13,QYEG,≤ 0.2
14,RKTK,≤ 0.2
15,AAGL,≤ 0.2
16,MMKR,≤ 0.2
17,RWNN,0.355
18,DWSP,≤ 0.2
19,EVQR,≤ 0.2
20,RESS,0.306
21,KGHV,≤ 0.2
22,PVGC,≤ 0.2
23,DAIC,≤ 0.2
24,PSTH,≤ 0.2

row,Variant,one-hybrid fitness for binding parS DNA
1,KSYR,≤ 0.2
2,HCKD,≤ 0.2
3,VSVG,≤ 0.2
4,VRPS,≤ 0.2
5,PAPQ,≤ 0.2
6,CCKA,≤ 0.2
7,HARM,≤ 0.2
8,SIVN,≤ 0.2
9,DENT,≤ 0.2
10,AFDC,≤ 0.2
11,AGPT,≤ 0.2
12,MYQW,≤ 0.2
13,RSMW,≤ 0.2
14,QTAH,≤ 0.2
15,FHCG,0.206
16,MVCC,≤ 0.2
17,VCKS,≤ 0.2
18,TCNV,≤ 0.2
19,IWTS,≤ 0.2
20,VRAW,≤ 0.2
21,KRMH,≤ 0.2
22,GRKV,≤ 0.2
23,RAFF,0.249
24,ACRA,≤ 0.2

row,Variant,one-hybrid fitness for binding parS DNA
1,VSLC,≤ 0.2
2,LACS,≤ 0.2
3,PKAG,≤ 0.2
4,PMDG,≤ 0.2
5,EVTM,≤ 0.2
6,RVVY,0.413
7,DYKR,≤ 0.2
8,HTSM,≤ 0.2
9,HFSL,≤ 0.2
10,SMLC,≤ 0.2
11,YIYG,≤ 0.2
12,SATM,≤ 0.2
13,RYNH,≤ 0.2
14,EHSS,≤ 0.2
15,MPRR,≤ 0.2
16,TVIM,≤ 0.2
17,NATV,≤ 0.2
18,MCVM,≤ 0.2
19,MPNT,≤ 0.2
20,YAMG,≤ 0.2
21,GQLG,≤ 0.2
22,KNCS,≤ 0.2
23,KAYW,≤ 0.2
24,RKKD,≤ 0.2

row,Variant,one-hybrid fitness for binding parS DNA
1,RWPG,0.406
2,SYHM,≤ 0.2
3,GEMK,≤ 0.2
4,PHYI,≤ 0.2
5,MSVP,≤ 0.2
6,WSME,≤ 0.2
7,WATT,≤ 0.2
8,SSCG,≤ 0.2
9,GMKR,≤ 0.2
10,RVKD,≤ 0.2
11,VDML,≤ 0.2
12,YLVC,≤ 0.2
13,PHTK,≤ 0.2
14,TPYR,≤ 0.2
15,RINF,0.201
16,TMPS,≤ 0.2
17,LYRG,≤ 0.2
18,RPTR,≤ 0.2
19,NRFE,≤ 0.2
20,KVDG,≤ 0.2
21,PYAF,≤ 0.2
22,TDPN,≤ 0.2
23,KRCR,≤ 0.2
24,QKGT,≤ 0.2

row,Variant,one-hybrid fitness for binding parS DNA
1,AQMC,≤ 0.2
2,RAVT,0.77
3,YFVV,≤ 0.2
4,PTVF,≤ 0.2
5,ATLI,≤ 0.2
6,AQPR,≤ 0.2
7,VWAN,≤ 0.2
8,ARCH,≤ 0.2
9,GPKV,≤ 0.2
10,MLGL,≤ 0.2
11,VPLE,≤ 0.2
12,NFDM,≤ 0.2
13,IYIT,≤ 0.2
14,PRQG,≤ 0.2
15,MSEE,≤ 0.2
16,ASWG,≤ 0.2
17,IHTP,≤ 0.2
18,THQK,≤ 0.2
19,LGYC,≤ 0.2
20,EYKT,≤ 0.2
21,PAPM,≤ 0.2
22,RHNT,0.857
23,NTVP,≤ 0.2
24,GPLL,≤ 0.2

row,Variant,one-hybrid fitness for binding parS DNA
1,VVPR,≤ 0.2
2,LVRK,≤ 0.2
3,DSVW,≤ 0.2
4,MQTS,≤ 0.2
5,PWIG,≤ 0.2
6,LKWG,≤ 0.2
7,QESS,≤ 0.2
8,PGYI,≤ 0.2
9,YANT,≤ 0.2
10,IILS,≤ 0.2
11,NPRT,≤ 0.2
12,AVLR,≤ 0.2
13,PAPN,≤ 0.2
14,DITM,≤ 0.2
15,SLTH,≤ 0.2
16,WMVG,≤ 0.2
17,YHKR,≤ 0.2
18,SEEG,≤ 0.2
19,CTTI,≤ 0.2
20,SNDI,≤ 0.2
21,EIMC,≤ 0.2
22,QGPI,≤ 0.2
23,ANEK,≤ 0.2
24,NLMG,≤ 0.2

row,Variant,one-hybrid fitness for binding parS DNA
1,TVWH,≤ 0.2
2,ADDM,≤ 0.2
3,VTAL,≤ 0.2
4,QSTP,≤ 0.2
5,YAKV,≤ 0.2
6,KKVR,≤ 0.2
7,YRSY,≤ 0.2
8,APKQ,≤ 0.2
9,EYFF,≤ 0.2
10,RPYM,≤ 0.2
11,QTMH,≤ 0.2
12,AMSM,≤ 0.2
13,LGCS,≤ 0.2
14,PFVV,≤ 0.2
15,FALI,≤ 0.2
16,QIWA,≤ 0.2
17,RHCC,0.869
18,DRHK,≤ 0.2
19,VVYT,≤ 0.2
20,VSSM,≤ 0.2
21,PGLF,≤ 0.2
22,KEPK,≤ 0.2
23,NGFT,≤ 0.2
24,SVLG,≤ 0.2

row,Variant,one-hybrid fitness for binding parS DNA
1,PMWM,≤ 0.2
2,GAVD,≤ 0.2
3,MKNR,≤ 0.2
4,EQLL,≤ 0.2
5,ETQL,≤ 0.2
6,SWEW,≤ 0.2
7,SFPP,≤ 0.2
8,AHDC,≤ 0.2
9,HWAA,≤ 0.2
10,TMRA,≤ 0.2
11,RDLI,≤ 0.2
12,VAVR,≤ 0.2
13,VTTM,≤ 0.2
14,SWCC,≤ 0.2
15,QRSY,≤ 0.2
16,CDKR,≤ 0.2
17,HRVF,≤ 0.2
18,QQRD,≤ 0.2
19,PSTG,≤ 0.2
20,LSCI,≤ 0.2
21,TVDW,≤ 0.2
22,NHAR,≤ 0.2
23,CTDR,≤ 0.2
24,GKRL,≤ 0.2

row,Variant,one-hybrid fitness for binding parS DNA
1,MDKR,≤ 0.2
2,QLVG,≤ 0.2
3,IFKD,≤ 0.2
4,LLVI,≤ 0.2
5,WSFT,≤ 0.2
6,LPAI,≤ 0.2
7,ASSE,≤ 0.2
8,AGCS,≤ 0.2
9,ADCS,≤ 0.2
10,QVDI,≤ 0.2
11,ISDT,≤ 0.2
12,MVLC,≤ 0.2
13,DLIE,≤ 0.2
14,WHVT,≤ 0.2
15,AAAD,≤ 0.2
16,LEPP,≤ 0.2
17,YAKG,≤ 0.2
18,HKFG,≤ 0.2
19,DTIT,≤ 0.2
20,TVNL,≤ 0.2
21,TVPF,≤ 0.2
22,WELE,≤ 0.2
23,KCMY,≤ 0.2
24,DSYL,≤ 0.2

row,Variant,one-hybrid fitness for binding parS DNA
1,VLRH,≤ 0.2
2,AAPI,≤ 0.2
3,AEWT,≤ 0.2
4,KEHS,≤ 0.2
5,RDEI,≤ 0.2
6,ASQI,≤ 0.2
7,GFRT,≤ 0.2
8,DWVR,≤ 0.2
9,INMD,≤ 0.2
10,DRHR,≤ 0.2
11,HFLC,≤ 0.2
12,TDVM,≤ 0.2
13,PYHI,≤ 0.2
14,IQFV,≤ 0.2
15,YWDR,≤ 0.2
16,PRNP,≤ 0.2
17,EVYG,≤ 0.2
18,KTIG,≤ 0.2
19,CGQH,≤ 0.2
20,GLRN,≤ 0.2
21,QHKV,≤ 0.2
22,SGDI,≤ 0.2
23,LCNE,≤ 0.2
24,DNRK,≤ 0.2

row,Variant,one-hybrid fitness for binding parS DNA
1,PPYC,≤ 0.2
2,YRKS,0.353
3,PFDG,≤ 0.2
4,VVTW,≤ 0.2
5,CFRY,≤ 0.2
6,RQTF,0.211
7,MRLW,≤ 0.2
8,IRVT,≤ 0.2
9,SYLL,≤ 0.2
10,VAPW,≤ 0.2
11,PLME,≤ 0.2
12,QCCL,≤ 0.2
13,LCYK,≤ 0.2
14,FDAF,≤ 0.2
15,RPGC,≤ 0.2
16,SAVK,≤ 0.2
17,TLQD,≤ 0.2
18,RWFT,0.497
19,SGES,≤ 0.2
20,HPTS,≤ 0.2
21,RYCV,≤ 0.2
22,ANII,≤ 0.2
23,IEIF,≤ 0.2
24,TKPF,≤ 0.2

row,Variant,one-hybrid fitness for binding parS DNA
1,QRYK,≤ 0.2
2,YTMR,≤ 0.2
3,NKQN,≤ 0.2
4,QRKN,≤ 0.2
5,CPPQ,≤ 0.2
6,FKAS,≤ 0.2
7,ASMD,≤ 0.2
8,IRWG,≤ 0.2
9,RHVH,≤ 0.2
10,RVQR,≤ 0.2
11,QYYV,≤ 0.2
12,GAES,≤ 0.2
13,PFTM,≤ 0.2
14,ALPW,≤ 0.2
15,VTKS,≤ 0.2
16,HDDI,≤ 0.2
17,AAPV,≤ 0.2
18,AYPC,≤ 0.2
19,IFGR,≤ 0.2
20,RDPA,≤ 0.2
21,FSKK,≤ 0.2
22,CSLP,≤ 0.2
23,ARQA,≤ 0.2
24,TWHI,≤ 0.2

row,Variant,one-hybrid fitness for binding parS DNA
1,PRQE,≤ 0.2
2,CSQV,≤ 0.2
3,HMPS,≤ 0.2
4,EQPK,≤ 0.2
5,MVVC,≤ 0.2
6,VAHI,≤ 0.2
7,VALS,≤ 0.2
8,YLNE,≤ 0.2
9,MLWC,≤ 0.2
10,SVCF,≤ 0.2
11,LRDN,≤ 0.2
12,PSTD,≤ 0.2
13,RHWT,0.692
14,ASFS,≤ 0.2
15,TYHC,≤ 0.2
16,KGRS,≤ 0.2
17,RLMV,≤ 0.2
18,HTWM,≤ 0.2
